Measured values reported in the supplement of paper PMC11417369.
± gives the standard deviation of the averaged measurements. This is one part of the list.

system: PfAP2-EXP AP2 domain (GST-tagged); assay: gcPBM binding intensity (ln(normalized median fluorescence intensity)); higher = stronger DNA binding
In short: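 Each value is the highest Masliner-normalised natural-log median intensity across replicate spots of either orientation of a probe. The probes were primer-extended double-stranded 36-bp intergenic genomic sequences on an Agilent 4 × 180k array, alongside negative controls, exposed for 1 h to GST-tagged P. falciparum DNA-binding domains expressed in E. coli. Bound protein was picked up with Alexa488 anti-GST antibody and scanned at 488 nm.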

Sequence	gcPBM binding intensity (ln)
ATATATTTATTTATATGTACATATTATATATTATAG [XGTACX_site3371]	8.55 ± 0.35
GATTATACAAAATATACACACGTGTACAGAAATATT [CACACA_site8305]	8.82 ± 0.39
TTATATTAATTTTGTTGTACTATTTGTGCATTAAAT [XGTACX_site4790]	8.96 ± 0.23
TTTATATAAAATTATTGTACAGTTTTAATATTTTAA [XGTACX_site6807]	8.26 ± 0.26
AAGGATAATATATTAGAACACACATATATATGTAAA [CACACA_site7942]	8.73 ± 0.52
TACATACACAAATACACACACAAATACATACACAAA [CACACA_site704]	8.71 ± 0.53
TAAACAAATAAATATTGTACATTTTTTCCTTTTAAT [XGTACX_site5594]	8.15 ± 0.42
ATAAAATTATTATATACATGCAAAATTAATATATTG [TGCATGCA_site507]	8.65 ± 0.44
TATCTTCATATATGGTGTACAGATTTTTTTTTTTTT [XGTACX_site5545]	8.56 ± 0.5
TTTCTTTTTTTGGGCACACAAAATTTTCTCATTTTA [CACACA_site68]	8.77 ± 0.36
ATTATATAATAATGCATGCACCTTATTTTCATTTCA [GTGCAC_site9922]	9.99 ± 0.19
AAAATAAAAAAAATGAATTAGTTAAATGAAAAATAA [CACACA_negctrl_site1294]	8.38 ± 0.46
TGAATAAATAAACACACACACATATATATATCTGTA [CACACA_site4184]	8.44 ± 0.36
AATATTCAATATAAAGTGCATTATTGTGCCCCTAAT	8.57 ± 0.17
GTTATACATTTGAAAAGTACTCATGATTTTTTTTTT [XGTACX_site8177]	8.75 ± 0.45
ATAAAAATCAAAAAAAATACATAATAGTAATAATAA [GTGCAC_negctrl_site481]	8.55 ± 0.37
TTTTTATTGTTATACTTATATTATTTTATGATTAAA [XGTACX_negctrl_site262]	8.54 ± 0.45
AAATAATAAAGTATAACACACATATTTATTTATATA [CACACA_site7822]	8.12 ± 0.46
AAATAGAAAAAATATACACACACTTATTAAATAAAA [CACACA_site3313]	8.61 ± 0.39
CTGATATATTATTTATCTGAATATATTAATATGTAT [GTGCAC_negctrl_site82]	8.05 ± 0.33
AAAATTAAAAAAATATGTACTTATGGGTAACATCAT [XGTACX_site5548]	8.39 ± 0.23
AAAAAATTTTAATATGCATGTAATTTTGCTTTTTCA [TGCATGCA_site1044]	8.51 ± 0.4

Sequence	gcPBM binding intensity (ln)
TAATATAGGGGTGTTCAAATAAATTTTGTTATTTTT [CACACA_negctrl_site1203]	9.05 ± 0.61
AGCACGCACAGACACACACACATATTTATATTTATA [CACACA_site6291]	8.7 ± 0.45
GATGTGTAAATAAGGATATATAACAATCAACAAAAC [XGTACX_negctrl_site494]	8.88 ± 0.34
AATAGAAAAAAAAAATGTACAAAATGTTTATAAAAA [XGTACX_site4635]	8.63 ± 0.47
TCATTTTAAGGAAAAAGTACAAAATAATATGTTCCT [XGTACX_site1903]	8.35 ± 0.36
ACCTATTTCAAACACACACACACACCCACAAACATA [CACACA_site977]	8.71 ± 0.4
ACGAATATAGGATGTTTGCACTGTACCAATAAATGA [GTGCAC_site9808]	8.65 ± 0.27
TTCTTAATACAAATATGTACATATATATATATATAT [XGTACX_site757]	10.1 ± 0.45
AAATTACCCTTGTGTACACATATATTATCTGTATTA [CACACA_site4514]	8.83 ± 0.45
AAATGAATATAAAATATACACACTTATATATTGAAT [CACACA_site202]	8.15 ± 0.35
TATTGAAAGTGAATTATAACATTAAAAATATATATA [TGCATGCA_negctrl_site566]	8.13 ± 0.27
CAATATAAAAGACACACACACAAACATATATTTATA [CACACA_site7697]	8.71 ± 0.45
TGAATATGTAAATGCACACCAAAAAAAAAAAAAAAA [CACACA_site3566]	8.56 ± 0.15
GAAGGAAATAAATCAACACACATATATTATAGATAT [CACACA_site7095]	8.6 ± 0.4
ATAATGTAAAATAAATGTACGCAATATATAAAAAAT [XGTACX_site5747]	9.06 ± 0.38
TTTTTTTTTATTATCATGCACACATTTTTTTTTTTT [CACACA_site2254]	8.6 ± 0.38
AAAAAAAAAAAACACACACACACATACAAAATATAT [CACACA_site1448]	8.64 ± 0.39
ACATATGAATATTTTTGTACGTATATTGTTATTCTT [XGTACX_site4720]	8.82 ± 0.47
GTAATTTAAATAACAAGTACTAATGTGGATAAGCAG [XGTACX_site1163]	9.12 ± 0.4
AATTATACGAAATAAAACTTAATAGACAAAAAATTA [CACACA_negctrl_site1384]	8.6 ± 0.37
ATAATATGCAATATTACACACAATTCATCATTTTTT [CACACA_site7477]	8.23 ± 0.32
GTATATTTAAATAAAAGTACGTAAAGATATATTTAA [XGTACX_site8087]	8.57 ± 0.38

Sequence	gcPBM binding intensity (ln)
AACAAAATAAAACACACACACAAATGTACATATATA [CACACA_site2424]	8.9 ± 0.49
TAGAAGCATCATTTTACACACATGCAAATGTAAACT [CACACA_site6973]	8.65 ± 0.35
ATTTTGTATTGACGCTGTACAAACATTAATATAATA [XGTACX_site2496]	8.48 ± 0.35
TTTTGCGTAGCAACGAGGTTTTTAAAAATGTAACCA [GTGCAC_negctrl_site691]	8.46 ± 0.49
AAAAGGAACGGACACACACACATATATATATATATA [CACACA_site5894]	10.2 ± 0.49
TATGCAAATTAATAATGTACGAAATATTTATAATTT [XGTACX_site2324]	8.35 ± 0.47
AATAAATTAGAAGGATGTACTTTGTTTAATATAGAG [XGTACX_site1943]	8.55 ± 0.32
TAATATAATCTGAGTGCACACAAATAAATAAACATA [CACACA_site8032]	8.965 ± 0.064
AGGTTATATATGAACAAAAATAAAATATTCATAGGC [TGCATGCA_negctrl_site46]	8.64 ± 0.38
ATATGTAAAATGAAGATACATACATACATACATACA [CACACA_negctrl_site715]	9.16 ± 0.21
ATATTATATATATGATGTACTAAATATATTATTATG [XGTACX_site1703]	8.33 ± 0.35
ATGTTATAAAATATATGTACATATTTATATAAAATA [XGTACX_site5766]	8.54 ± 0.39
TCTATTAATGAATATACACACATTATATATATATAT [CACACA_site5410]	10 ± 0.49
TTTATATTCTTTTTTTAACACACAAAAAAAATAAAA [CACACA_site8574]	8.17 ± 0.42
TATATAAAAAGTAATTGTACATATATATATATATAT [XGTACX_site7953]	10.1 ± 0.42
ATATATTTATATAAATGTACACGTGAATATATAATA [XGTACX_site1166]	8.97 ± 0.39
ATAAATAATTAGAATTGTACAAAAATTATATATATG [XGTACX_site5107]	8.47 ± 0.33
TATTTTATATTATCATGTACAAAAAAAAAGAAAAGA [XGTACX_site5379]	8.54 ± 0.57
AAACATAAATATGAGAGTACAAAAAATATTATGAAT [XGTACX_site151]	8.9 ± 0.45
TGAAAAAAAAAATGCACACGCATACATATAATATGT [CACACA_site641]	8.58 ± 0.45
ATCTCTTAAATTTTACGTACTTATTTTATCTTCTTA [XGTACX_site8877]	9.02 ± 0.42
TTATAATATATTACAAGTTCATTCATATAATATGTT [CACACA_negctrl_site1695]	8.28 ± 0.48

Sequence	gcPBM binding intensity (ln)
AAAAATAAAATATATATATATATATATATATATATA [CACACA_negctrl_site58]	10 ± 0.46
AATAAATACATACATACATGCATACATATATCTCAA [TGCATGCA_site1040]	8.68 ± 0.33
TATTTTTATATATATACACACTTACAGATATATATT [CACACA_site5905]	8.62 ± 0.36
AAAGGGGAGATATGAACACACAAAAAAAAAATATAT [CACACA_site7378]	8.82 ± 0.59
AAATAAAATTTTTGTTGTACTTATTTTTAGTATACT [XGTACX_site4254]	8.52 ± 0.42
AATATTTACAGACATGCGCACACATAAATAAATAAT [CACACA_site8760]	8.94 ± 0.37
AGAAAGGATATAAGCGTAGCTATATCATAAAAAATG [GTGCAC_negctrl_site332]	8.49 ± 0.37
TATATATATTTTAAATGTACTTATAAATTACCACTT [XGTACX_site5673]	8.44 ± 0.25
GTATATATATATTTATGTACTTACCTACATAATTAT [XGTACX_site4435]	8.84 ± 0.24
TAAATAAATTTGCACTGTACGCAAAAAAAAAAAAGA [XGTACX_site8781]	8.64 ± 0.56
CCTTTTAAGAGTTGCACACGTACAAAAAAAAAAAAA [CACACA_site3492]	8.6 ± 0.45
ACACATAAATGTATATATATATAAATATATGTATGT [CACACA_negctrl_site1532]	8.41 ± 0.31
AATAATAAAAAATACGCACACATGTAAACGTATGTT [CACACA_site3336]	8.44 ± 0.3
GGCGATATAGAACTACGTACTTATACAAATTATAAT [XGTACX_site2307]	8.68 ± 0.4
ATAGCAATAATGGAAAGTACAAAAAAACTTGTTATA [XGTACX_site8518]	8.62 ± 0.34
TATATATATATATATAAGCTTATAATAAAACAAAAA [XGTACX_negctrl_site568]	10.1 ± 0.32
TGTATTAATAAAAATACACACATCATATTATATAAA [CACACA_site3534]	8.22 ± 0.33
AATCCTTACAGACACACACACACGAATAAATAAAAA [CACACA_site480]	8.66 ± 0.59
TTATAATTTTTGAGCACACACAAGCATATATATATA [CACACA_site1798]	9.92 ± 0.34
TATGTATTATCAAAAAGTACTAAAAAAAAATAATAA [XGTACX_site4703]	8.73 ± 0.47
TATATATGTATATGTGTGCACCTTATTTCTTTTATT [GTGCAC_site9513]	9.4 ± 0.38
ATAAATGTTATGCATACACACTTTATACCTATTTAA [CACACA_site5967]	8.54 ± 0.42
